In all, about 310,000 compounds went through this assay and about 14,000 (4.5%) showed an effect of 50% or more. Effects have a minus sign here. This is one part of the list.

The text below walks through data of article PMC4336329 (PLoS ONE, 2015).
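Further: peak tail current of the secondary pulse compared with the same well before compound.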

human ether-à-go-go-related gene (hERG) potassium channel, sequence (Q12809 whole entry, looked up): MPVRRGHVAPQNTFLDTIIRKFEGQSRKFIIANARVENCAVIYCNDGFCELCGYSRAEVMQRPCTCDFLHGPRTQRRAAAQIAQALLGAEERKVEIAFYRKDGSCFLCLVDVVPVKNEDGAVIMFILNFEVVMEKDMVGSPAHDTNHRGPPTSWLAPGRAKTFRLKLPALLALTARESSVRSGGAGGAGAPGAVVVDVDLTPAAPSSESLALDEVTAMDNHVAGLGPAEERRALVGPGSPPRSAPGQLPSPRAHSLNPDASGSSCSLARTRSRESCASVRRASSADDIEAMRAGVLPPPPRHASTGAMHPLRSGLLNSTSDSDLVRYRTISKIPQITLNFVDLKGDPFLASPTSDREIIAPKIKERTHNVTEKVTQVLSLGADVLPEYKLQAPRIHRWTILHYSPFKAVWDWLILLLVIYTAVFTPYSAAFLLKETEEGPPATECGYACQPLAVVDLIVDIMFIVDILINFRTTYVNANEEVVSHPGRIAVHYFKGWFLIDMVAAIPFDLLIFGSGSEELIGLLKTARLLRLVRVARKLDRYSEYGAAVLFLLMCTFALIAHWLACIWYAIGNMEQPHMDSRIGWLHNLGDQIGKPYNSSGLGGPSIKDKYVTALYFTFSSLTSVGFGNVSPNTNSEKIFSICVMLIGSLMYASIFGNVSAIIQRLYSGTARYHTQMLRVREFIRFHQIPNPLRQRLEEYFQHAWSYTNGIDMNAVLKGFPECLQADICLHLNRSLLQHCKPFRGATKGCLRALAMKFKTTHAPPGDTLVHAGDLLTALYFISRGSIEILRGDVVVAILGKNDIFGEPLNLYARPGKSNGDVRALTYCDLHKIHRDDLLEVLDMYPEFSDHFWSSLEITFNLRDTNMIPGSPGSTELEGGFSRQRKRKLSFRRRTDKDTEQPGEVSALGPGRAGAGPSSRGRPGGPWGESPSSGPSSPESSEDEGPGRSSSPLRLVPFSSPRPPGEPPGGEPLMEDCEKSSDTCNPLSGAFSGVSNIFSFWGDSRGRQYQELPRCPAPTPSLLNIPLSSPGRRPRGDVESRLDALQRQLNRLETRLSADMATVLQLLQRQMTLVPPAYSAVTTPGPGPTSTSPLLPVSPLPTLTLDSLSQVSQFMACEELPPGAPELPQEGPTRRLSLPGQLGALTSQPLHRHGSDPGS

The test concerns the target human ether-à-go-go-related gene (hERG) potassium channel (human, UniProt Q12809). Put plainly: primary screen, population patch clamp on CHO cells stably expressing hERG.
Regarding `COc1ccc(C(C)(C)C)cc1NC(=O)COC(=O)c1ccc([N+](=O)[O-])o1`, the “hERG current change (%, negative = inhibition) at 10uM” value is on record as 10.6%.

Take `CN1C(=O)N(CC(=O)NCc2ccc(Cl)cc2Cl)C(=O)C12CCCCC2`: the “hERG current change (%, negative = inhibition) at 10uM” value is recorded as -27.8%.

For `COc1ccc(-c2ccc([C@H]3[C@@H]4C=CCC[C@@]4(C)C(=O)N3Cc3ccccc3)c(F)c2)cc1`, the “hERG current change (%, negative = inhibition) at 10uM” value was found to be 8.98%. Under `Nc1nonc1-n1nnc(C(=O)N/N=C/C2CC=CCC2)c1CSc1ccccc1` (stereo not shown) stands -1.79%. With `CCc1ccc(OC)c(S(=O)(=O)N2CCN(C(=O)c3ccco3)CC2)c1`, the “hERG current change (%, negative = inhibition) at 10uM” value is listed as 3.26%. Next, `COc1cc(NC(=O)c2cccnc2)ccc1-c1cc2ccccc2oc1=O`: -0.0945%; `O=C(Nc1nc2ccccc2c2nc3ccccc3n12)c1ccc(F)cc1`: 5.69%. Next, `CCCS(=O)(=O)c1nc(S(=O)(=O)c2ccc(C)cc2)c(NCc2ccccn2)s1`: 2.9%; `CCOC(=O)C(=O)/C(C#N)=C/Nc1ccccc1`: 10.9%. Next, `CCN(CC)C(=S)Nc1ccc([N+](=O)[O-])cc1`: -13.3%; `Br.CCCCCCCCCn1c2c(c(=N)c3c1CCC3)CCC2`: -74.1%; `CC(C)n1nc(C(=O)NC2CCCCCC2)c2ccccc2c1=O`: -12%. On to `Cc1ccc(C)c(NS(=O)(=O)c2csc(C(N)=O)c2)c1`, for which the “hERG current change (%, negative = inhibition) at 10uM” value was found to be 12.8%. On to `CCc1ccc2[nH]c(=O)c(CN(CCN(CC)CC)C(=O)NC3CCCCC3)cc2c1`, for which the “hERG current change (%, negative = inhibition) at 10uM” value is -66.6%.

Consider `Cn1c(=O)n(-c2cccc(Cl)c2)c(=O)c2c3c(sc21)COC(C)(C)C3`, for which the “hERG current change (%, negative = inhibition) at 10uM” value was found to be 12.4%. Next, `CCCCCOC(=O)Cc1c(O)c2ccccc2n(C)c1=O`: -7.44%; `Cc1csc(C(=O)NCC(=O)NNC(=O)c2cccc(Cl)c2)c1`: 3.15%.

`N#CCSc1nc(-c2ccccc2)nc2ccc(F)cc12`: the “hERG current change (%, negative = inhibition) at 10uM” value stood at 16.8%. As to `COc1ccc(C(=O)NNC(=O)CSc2nc3c([nH]2)c(=O)n(C)c(=O)n3C)cc1`, the “hERG current change (%, negative = inhibition) at 10uM” value was 34.2%. Regarding `CCC1CCCCN1C(=O)CSc1nc(N)c(NC(=O)c2ccco2)c(=O)[nH]1` (stereo not shown), the “hERG current change (%, negative = inhibition) at 10uM” value came to 12.1%.

Turning to `Cc1ccccc1NC(=O)Cn1c(C)nc2ccc(N)cc2c1=O`, the “hERG current change (%, negative = inhibition) at 10uM” value is given as 7.11%.

`N#Cc1cc2c(nc1SCC(=O)Nc1sc3c(c1C#N)CCC3)CCCCCC2`: the “hERG current change (%, negative = inhibition) at 10uM” value worked out at 8.81%. `CC(c1ccc(F)cc1)n1cc(C(=O)NCCN(C)C)nn1` (stereo not shown): the “hERG current change (%, negative = inhibition) at 10uM” value came to 37.5%. As for `COc1cccc(N=Nc2c(=O)[nH]n3c(=O)c4c([nH]c23)CCC4)c1`, the “hERG current change (%, negative = inhibition) at 10uM” value is 25%.

As to `O=C(COC(=O)C1COc2ccccc2O1)NC1CCS(=O)(=O)C1` (stereo not shown), the “hERG current change (%, negative = inhibition) at 10uM” value was 5.86%. As for `CCOc1cc(CN2CCN(c3ccc(C(C)=O)cc3)CC2)ccc1OC`, the “hERG current change (%, negative = inhibition) at 10uM” value is -23.5%. Next, `CCCC(=O)NCc1ccccc1Cl`: -8.63%; `COC(=O)N1CC(C)N(C(=O)OC)CC1C` (stereo not shown): 12.7%. With `CCCc1ncc(C(O)(c2ccccc2)c2ccccc2)n1C.Cl`, the “hERG current change (%, negative = inhibition) at 10uM” value is reported as 3.89%.

For the compound `CC(C)OC1(c2ccccc2)OC(=O)c2ccccc21` (stereo not shown), the “hERG current change (%, negative = inhibition) at 10uM” value is reported as -25.8%. As for `COC(=O)c1sccc1Oc1c(Cl)cccc1[N+](=O)[O-]`, the “hERG current change (%, negative = inhibition) at 10uM” value is -0.801%. Regarding `Cc1ccc(N2CC(C(=O)Nc3ccccc3C(=O)NC3CCCCC3)CC2=O)cc1` (stereo not shown), the “hERG current change (%, negative = inhibition) at 10uM” value was -5.81%. Next, `COc1ccc(-n2nc(C(=O)NCC(=O)Nc3ccc(F)cc3)c3ccccc3c2=O)cc1`: 21%; `COc1cc(OC)cc(C(=O)OCC(=O)NCc2ccc3c(c2)OCO3)c1`: 12.9%. In the case of `CC(=O)Nc1ccc(S(=O)(=O)NC2CC3CCC2C3)cc1` (stereo not shown), the “hERG current change (%, negative = inhibition) at 10uM” value was -0.107%. Next, `Cc1ccc(CCNC(=O)C2CCC(CNc3c(N4CCC(C)CC4)c(=O)c3=O)CC2)cc1` (stereo not shown): -3.48%. Next, `CCCn1c(SCCN2C(=O)c3ccccc3C2=O)n[nH]c1=O`: 9.04%; `Cc1ccc(NC(=O)COC(=O)CN2C(=O)C3CCCCC3C2=O)cc1S(=O)(=O)N1CCOCC1` (stereo not shown): -4.62%. Under `CCCOC(=O)Cn1cnc2scc(-c3ccc(OC)cc3)c2c1=O` stands 5.41%. Regarding `CCCCc1cc(-c2n[nH]c(=S)o2)c2ccccc2n1`, the “hERG current change (%, negative = inhibition) at 10uM” value was determined as 16%. `COC(=O)c1csc2c(C(F)(F)F)cc(N3CCN(C(=O)Nc4ccccc4)CC3)nc12`: the “hERG current change (%, negative = inhibition) at 10uM” value is 18.9%. Next, `O=S(=O)(NCc1ccco1)c1ccc(Cl)nc1`: 3.9%.

Take `COc1cccc(-c2nc(-c3ccccc3)[nH]c(=O)c2C#N)c1`: the “hERG current change (%, negative = inhibition) at 10uM” value is listed as 19.2%. Consider `O=C1C(C=NCc2ccco2)=C(O)c2ccccc21`, for which the “hERG current change (%, negative = inhibition) at 10uM” value is -12%.

As to `Cc1cccc(NC(=O)c2ccc(Cl)nc2)n1`, the “hERG current change (%, negative = inhibition) at 10uM” value stood at 24.8%. Next, `CC(=O)c1ccccc1C(=O)N1CCCC(CNC(=O)c2ccccc2Cl)C1` (stereo not shown): 9.64%.
